Among the data in the supplement of paper PMC12423691 are AlphaScreen luminescence signal values, retold here.

First the molecules themselves.
B1: SETD6, Q8TBK2 (protein)
chain: MATQAKRPRVAGPVDGGDLDPVACFLSWCRRVGLELSPKVSERAGGRRTRGGARAALTSPPAQVAVSRQGTVAGYGMVARESVQAGELLFVVPRAALLSQHTCSIGGLLERERVALQSQSGWVPLLLALLHELQAPASRWRPYFALWPELGRLEHPMFWPEEERRCLLQGTGVPEAVEKDLANIRSEYQSIVLPFMEAHPDLFSLRVRSLELYHQLVALVMAYSFQEPLEEEEDEKEPNSPVMVPAADILNHLANHNANLEYSANCLRMVATQPIPKGHEIFNTYGQMANWQLIHMYGFVEPYPDNTDDTADIQMVTVREAALQGTKTEAERHLVYERWDFLCKLEMVGEEGAFVIGREEVLTEEELTTTLKVLCMPAEEFRELKDQDGGGDDKREEGSLTITNIPKLKASWRQLLQNSVLLTLQTYATDLKTDQGLLSNKEVYAKLSWREQQALQVRYGQKMILHQLLELTS
B2: SMAD3, P84022 (protein)
chain: MSSILPFTPPIVKRLLGWKKGEQNGQEEKWCEKAVKSLVKKLKKTGQLDELEKAITTQNVNTKCITIPRSLDGRLQVSHRKGLPHVIYCRLWRWPDLHSHHELRAMELCEFAFNMKKDEVCVNPYHYQRVETPVLPPVLVPRHTEIPAEFPPLDDYSHSIPENTNFPAGIEPQSNIPETPPPGYLSEDGETSDHQMNHSMDAGSPNLSPNPMSPAHNNLDLQPVTYCEPAFWCSISYYELNQRVGETFHASQPSMTVDGFTDPSNSERFCLGLLSNVNRNAAVELTRRHIGRGVRLYYIGGEVFAECLSDSAIFVQSPNCNQRYGWHPATVCKIPPGCNLKIFNNQEFAALLAQSVNQGFEAVYQLTRMCTIRMSFVKGWGAEYRRQTVTSTPCWIELHLNGPLQWLDKVLTQMGSPSIRCSSVS
B3: CRHR2, Q13324 (protein)
chain: MDAALLHSLLEANCSLALAEELLLDGWGPPLDPEGPYSYCNTTLDQIGTCWPRSAAGALVERPCPEYFNGVKYNTTRNAYRECLENGTWASKINYSQCEPILDDKQRKYDLHYRIALVVNYLGHCVSVAALVAAFLLFLALRSIRCLRNVIHWNLITTFILRNVMWFLLQLVDHEVHESNEVWCRCITTIFNYFVVTNFFWMFVEGCYLHTAIVMTYSTERLRKCLFLFIGWCIPFPIIVAWAIGKLYYENEQCWFGKEPGDLVDYIYQGPIILVLLINFVFLFNIVRILMTKLRASTTSETIQYRKAVKATLVLLPLLGITYMLFFVNPGEDDLSQIMFIYFNSFLQSFQGFFVSVFYCFFNGEVRSAVRKRWHRWQDHHSLRVPMARAMSIPTSPTRISFHSIKQTAAV
B4: PHTF1, Q9UMS5 (protein)
chain: MASNERDAISWYQKKIGAYDQQIWEKSIEQTQIKGLKNKPKKMGHIKPDLIDVDLIRGSTFAKAKPEIPWTSLTRKGLVRVVFFPLFSNWWIQVTSLRIFVWLLLLYFMQVIAIVLYLMMPIVNISEVLGPLCLMLLMGTVHCQIVSTQITRPSGNNGNRRRRKLRKTVNGDGSRENGNNSSDKVRGIETLESVPIIGGFWETIFGNRIKRVKLISNKGTETDNDPSCVHPIIKRRQCRPEIRMWQTREKAKFSDGEKCRREAFRRLGNGVSDDLSSEEDGEARTQMILLRRSVEGASSDNGCEVKNRKSILSRHLNSQVKKTTTRWCHIVRDSDSLAESEFESAAFSQGSRSGVSGGSRSLNMSRRDSESTRHDSETEDMLWDDLLHGPECRSSVTSDSEGAHVNTLHSGTKRDPKEDVFQQNHLFWLQNSSPSSDRVSAIIWEGNECKKMDMSVLEISGIIMSRVNAYQQGVGYQMLGNVVTIGLAFFPFLHRLFREKSLDQLKSISAEEILTLFCGAPPVTPIIVLSIINFFERLCLTWMFFFMMCVAERTYKQRFLFAKLFSHITSARKARKYEIPHFRLKKVENIKIWLSLRSYLKRRGPQRSVDVVVSSVFLLTLSIAFICCAQVLQGHKTFLNDAYNWEFLIWETALLLFLLRLASLGSETNKKYSNVSILLTEQINLYLKMEKKPNKKEQLTLVNNVLKLSTKLLKELDTPFRLYGLTMNPLIYNITRVVILSAVSGVISDLLGFNIRLWKIKS
B5: RFX4, Q33E94 (protein)
chain: MHCGLLEEPDMDSTESWIERCLNESENKRYSSHTSLGNVSNDENEEKENNRASKPHSTPATLQWLEENYEIAEGVCIPRSALYMHYLDFCEKNDTQPVNAASFGKIIRQQFPQLTTRRLGTRGQSKYHYYGIAVKESSQYYDVMYSKKGAAWVSETGKKEVSKQTVAYSPRSKLGTLLPEFPNVKDLNLPASLPEEKVSTFIMMYRTHCQRILDTVIRANFDEVQSFLLHFWQGMPPHMLPVLGSSTVVNIVGVCDSILYKAISGVLMPTVLQALPDSLTQVIRKFAKQLDEWLKVALHDLPENLRNIKFELSRRFSQILRRQTSLNHLCQASRTVIHSADITFQMLEDWRNVDLNSITKQTLYTMEDSRDEHRKLITQLYQEFDHLLEEQSPIESYIEWLDTMVDRCVVKVAAKRQGSLKKVAQQFLLMWSCFGTRVIRDMTLHSAPSFGSFHLIHLMFDDYVLYLLESLHCQERANELMRAMKGEGSTAEVREEIILTEAAAPTPSPVPSFSPAKSATSVEVPPPSSPVSNPSPEYTGLSTTGAMQSYTWSLTYTVTTAAGSPAENSQQLPCMRNTHVPSSSVTHRIPVYPHREEHGYTGSYNYGSYGNQHPHPMQSQYPALPHDTAISGPLHYAPYHRSSAQYPFNSPTSRMEPCLMSSTPRLHPTPVTPRWPEVPSANTCYTSPSVHSARYGNSSDMYTPLTTRRNSEYEHMQHFPGFAYINGEASTGWAK
B6: ESRRG, P62508 (protein)
chain: MDSVELCLPESFSLHYEEELLCRMSNKDRHIDSSCSSFIKTEPSSPASLTDSVNHHSPGGSSDASGSYSSTMNGHQNGLDSPPLYPSAPILGGSGPVRKLYDDCSSTIVEDPQTKCEYMLNSMPKRLCLVCGDIASGYHYGVASCEACKAFFKRTIQGNIEYSCPATNECEITKRRRKSCQACRFMKCLKVGMLKEGVRLDRVRGGRQKYKRRIDAENSPYLNPQLVQPAKKPYNKIVSHLLVAEPEKIYAMPDPTVPDSDIKALTTLCDLADRELVVIIGWAKHIPGFSTLSLADQMSLLQSAWMEILILGVVYRSLSFEDELVYADDYIMDEDQSKLAGLLDLNNAILQLVKKYKSMKLEKEEFVTLKAIALANSDSMHIEDVEAVQKLQDVLHEALQDYEAGQHMEDPRRAGKMLMTLPLLRQTSTKAVQHFYNIKLEGKVPMHKLFLEMLEAKV

Some of the results follow. Binding of human transcription factors and regulators to the viral nucleoprotein by AlphaScreen, crude cell-free proteins, amounts not normalised, one pass. Fold of the Venus control; higher = more signal. No active / inactive call. Single-pass screen; sequences are the whole Swiss-Prot entries looked up by name.

The test addresses nucleoprotein N of Crimean-Congo hemorrhagic fever virus. The test can be described thus: AlphaScreen luminescence signal relative to Venus negative control (fold); higher = stronger binding to CCHFV N. The procedure:
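AlphaScreen binding of cell-free made, FLAG-GST-tagged human transcription factors and regulators (crude translation products) to biotinylated N protein; signal as fold of the FLAG-GST-Venus control. One pass.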
Background: In Alpha technology, singlet oxygen from a donor bead excites a nearby acceptor bead.
Take B1: the AlphaScreen luminescence signal was determined as 1.72.

B2 returned an AlphaScreen luminescence signal of 5.35. B3 came in with an AlphaScreen luminescence signal of 3.44. Then B4, with 3.81; and B5, with 2.19.

For the molecule B6, the AlphaScreen luminescence signal was determined as 4.93.
